# Reference: the supplement of paper PMC7826260
# Some of the results follow. Each Rep nickase domain was tested in vitro on the same pool of single strands at 3 µM enzyme and 37 °C for 1 h; the strands have 90 letters, of which the middle is given. Values are log2 of uncut reads against the no-enzyme pool; strong cutting gives strongly negative numbers. There is no active / inactive call. Reads are scaled to the total; uncut strands gain when others are lost, and binding without cutting may add a little.
# Experiments:
# Test in all cases: uncleaved DNA left, log2 of reads against the no-enzyme library (log2 ratio); higher = less cleavage (more negative = more Rep cleavage of the k-mer); sequences stand for … in CTCGTCCG…ACCGGAGA
# [1] = system: T1, Rep nickase domain of Muscovy duck circovirus
# T1 sequence (Rep 1-111, printed without the tag): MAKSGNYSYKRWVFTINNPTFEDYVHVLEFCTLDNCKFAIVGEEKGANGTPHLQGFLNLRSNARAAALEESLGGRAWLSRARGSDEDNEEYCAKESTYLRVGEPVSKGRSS
# Protocol: (§1)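 A pool of 90-nt single-stranded DNAs with seven random bases just before the constant AC of the nick site (name = the seven bases) was cut by 3 µM recombinant His6-SUMO-tagged Rep nickase domain (300 nM DNA, 50 mM HEPES pH 8.0, 50 mM NaCl, 1 mM MnCl2, 1 h, 37 °C, three replicates). Uncut DNA was amplified and sequenced.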
# [2] = system: T2, Rep nickase domain of banana bunchy top virus
# T2 sequence (Rep 1-94, printed without the tag): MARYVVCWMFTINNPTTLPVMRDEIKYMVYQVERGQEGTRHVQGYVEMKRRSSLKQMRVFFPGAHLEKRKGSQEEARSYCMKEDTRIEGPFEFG
# Protocol: as §1
# [3] = system: T3, Rep nickase domain of cabbage leaf curl virus
# T3 sequence (Rep 1-116, printed without the tag): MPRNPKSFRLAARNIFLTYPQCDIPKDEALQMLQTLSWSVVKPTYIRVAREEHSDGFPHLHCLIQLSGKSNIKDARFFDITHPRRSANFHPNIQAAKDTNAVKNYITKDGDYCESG
# Protocol: as §1
# [4] = system: T4, Rep nickase domain of chickpea chlorotic dwarf virus
# T4 sequence (Rep 1-124, printed without the tag): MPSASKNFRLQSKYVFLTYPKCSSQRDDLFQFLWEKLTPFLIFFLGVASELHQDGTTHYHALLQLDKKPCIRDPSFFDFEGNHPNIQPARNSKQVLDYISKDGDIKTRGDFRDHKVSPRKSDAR
# Protocol: as §1
# [5] = system: T5, Rep nickase domain of faba bean necrotic yellows virus
# T5 sequence (Rep 1-98, printed without the tag): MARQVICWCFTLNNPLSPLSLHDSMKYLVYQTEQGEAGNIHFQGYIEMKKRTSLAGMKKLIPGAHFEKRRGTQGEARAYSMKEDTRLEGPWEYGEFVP
# Protocol: as §1
# [6] = system: T6, Rep nickase domain of maize striate mosaic virus
# T6 sequence (Rep 1-117, printed without the tag): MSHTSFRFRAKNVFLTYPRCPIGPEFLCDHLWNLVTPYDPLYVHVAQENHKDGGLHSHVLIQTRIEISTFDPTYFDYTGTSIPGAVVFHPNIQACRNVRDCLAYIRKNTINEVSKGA
# Protocol: as §1
# [7] = system: T7, Rep nickase domain of porcine circovirus 2
# T7 sequence (Rep 2-116, printed without the tag): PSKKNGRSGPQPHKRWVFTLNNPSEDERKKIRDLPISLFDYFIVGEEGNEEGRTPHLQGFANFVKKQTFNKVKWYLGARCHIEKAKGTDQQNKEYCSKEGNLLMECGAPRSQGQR
# Protocol: as §1
# [8] = system: T8, Rep nickase domain of tomato yellow leaf curl virus
# T8 sequence (Rep 1-136, printed without the tag): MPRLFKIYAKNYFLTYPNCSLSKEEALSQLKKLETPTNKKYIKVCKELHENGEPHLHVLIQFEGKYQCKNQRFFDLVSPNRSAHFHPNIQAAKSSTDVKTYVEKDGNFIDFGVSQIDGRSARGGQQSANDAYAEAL
# Protocol: as §1
# [9] = system: T9, Rep nickase domain of wheat dwarf virus
# T9 sequence (Rep 1-137, printed without the tag): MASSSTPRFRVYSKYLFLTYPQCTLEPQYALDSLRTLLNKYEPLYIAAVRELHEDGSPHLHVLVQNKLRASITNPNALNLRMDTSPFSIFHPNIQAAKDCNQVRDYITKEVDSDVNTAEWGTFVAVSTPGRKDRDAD
# Protocol: as §1
Sequence,uncleaved DNA left (log2) [1],uncleaved DNA left (log2) [2],uncleaved DNA left (log2) [3],uncleaved DNA left (log2) [4],uncleaved DNA left (log2) [5],uncleaved DNA left (log2) [6],uncleaved DNA left (log2) [7],uncleaved DNA left (log2) [8],uncleaved DNA left (log2) [9]
AATAGGC,0.0689,-0.00517,0.195,0.272,0.0853,-0.531,0.107,0.0333,-0.0103
CAGTTAG,0.067,0.0153,-0.719,0.0605,0.153,-0.943,0.0634,0.136,-0.0507
TACGCCG,-0.129,-0.106,-0.884,-0.307,0.0634,-0.949,0.0664,-0.052,-0.199
AGTCCGT,0.0017,-0.0113,-0.021,-0.0843,0.0379,-0.623,-1.31,-0.0804,0.0234
GGTGTTC,0.0574,-0.0187,0.408,0.974,-0.0224,1.83,0.139,-0.0289,0.00216
AACAATC,0.0838,0.169,-0.0481,-0.231,0.0803,-0.531,0.102,0.0256,0.106
GCCGGCG,0.15,0.125,-0.364,0.851,0.111,0.252,0.248,0.0693,0.0814
CCTTAGA,-0.138,-0.203,-0.255,-0.643,-0.0443,-1.22,-0.104,-0.131,-0.164
GAATAGC,0.0546,0.0809,-0.357,-0.416,0.0141,-0.868,0.0658,0.0401,-0.0462
AATCTGC,0.13,0.0376,-0.342,-0.351,0.03,-0.913,0.109,0.0578,-0.00316
GAGCACA,0.0496,0.0858,0.252,0.341,-0.0839,1.32,-0.276,0.0293,0.103
CCCTTAT,0.0974,-0.0717,0.466,-0.188,0.101,-0.0838,-0.973,-0.0677,0.157
CGTTACC,-0.0408,0.0368,-0.043,-1.48,-0.0135,-0.272,-1.02,0.0162,-0.0397
CGGGACC,0.0321,0.0705,0.783,1.91,0.0219,2.22,0.243,0.0435,0.144
GTACAGC,0.158,0.137,0.516,1.05,-0.0236,1.33,0.227,0.119,0.161
